Data as given in PubChem BioAssay AID1745845 (National Center for Advancing Translational Sciences (NCATS), 2022).
Where “and” joins values, the source holds several entries; their conditions need not be identical. Equal values may be shown once. Among all 360,000 compounds or so, about 2,600 (0.72%) were called active. Inconclusive means that the source gave no clear call. Such entries were picked first, then a sample of the others. Calls come from the whole dose curve; as a rule, active = well fitted inhibition curve with a large enough effect; inconclusive = small, poorly fitted or top-dose-only effect; inactive = no such curve, though single readings can be large or run the other way. Potencies of inconclusive entries are doubtful fits and often do not repeat.

experiment: Primary qHTS for Inhibitors of ATXN expression; settings: HEK-293 ATXN2-luciferase reporter, luminescence, 24 h; activity change, negative = inhibition: at 57 µM (top of the series); note: nearly all actives have a fitted effect of over 55% in size
Procedure, shortened: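 ATXN2-luciferase reporter cells (luciferase flanked by upstream and downstream ATXN2 gene portions) were treated 24 h at 37 °C with compounds at up to 57 uM. SteadyGlo luminescence gave expression; GF-AFC fluorescence gave viability.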
% is set by controls: 0 for no effect and ±100 for the full control effect; potency is the fitted concentration of half-maximal effect; tags give direction and shape of the fitted curve.

Structure (SMILES)	Potency	activity change, negative = inhibition
CN1CCC2(CC1)N=C(c1ccc(F)cc1)C(=S)N2C(=O)c1ccc(C(C)(C)C)cc1	active: 31.6 µM	
CCCCN1CCNC[C@H]1Cc1ccc(O)cc1	inactive	
COc1ccccc1Nc1c2c(nc3ccc(NC(=O)c4ccc(OC)c(OC)c4)cc13)CCCC2	inconclusive: 25.1 µM [inhibitor, single point]	
COc1ccc(CCNC(=O)c2ccc3c(c2)CCN3S(=O)(=O)c2ccccc2)cc1OC	inactive	
CCOC(=O)COc1ccc(/C=C/[N+](=O)[O-])c(OCC(=O)OCC)c1	active: 8.91 µM	
Cc1cc(Nc2cccc(Cl)c2)nc2ccc(NC(=O)Cc3ccc(Cl)cc3)cc12	inconclusive: 35.5 µM [inhibitor, single point]	
O=C(NNC(=O)c1cc2ccccc2oc1=O)c1ccccc1[N+](=O)[O-]	inactive	
CCCc1sc(N/N=C/c2ccccn2)nc1-c1ccc(F)cc1	active: 3.98 µM	
CCc1ccc(S(=O)(=O)NCc2cccnc2)cc1	inactive	
COc1ccc(S(=O)(=O)N(C)[C@H]2C[C@H]3c4cc(Oc5ccccc5C)ccc4CCN3C(=O)[C@H]2[C@H](C)O)cc1	inconclusive: 28.2 µM [inhibitor, partial curve, poor fit]	
COC(=O)c1ccc(COc2ccccc2/C=C(\C#N)C(=O)Nc2c(C)cccc2C)cc1	inactive	
CC(C)(C)c1cc(C(=O)N/N=C/c2ccc([N+](=O)[O-])s2)n[nH]1	inconclusive: 15 µM [inhibitor, partial curve, poor fit]	
CCCCCCNC(=O)O[C@H]1Cn2c(=O)ccc(=O)n2[C@@H]2CN(S(=O)(=O)c3ccc(C)cc3)C[C@]12O	active: 14.1 µM	
CCS(=O)(=O)N1CCc2cc(C(=O)N3CCN(c4ccc(OC)cc4)CC3)ccc21	inactive	
COc1ccc(S(=O)(=O)NCc2cccn2Cc2cccc(C)c2)cc1Cl	inconclusive: 39.8 µM [inhibitor, single point]	
Cc1cc(NC(=O)CSc2c3c(nc4ccccc24)CCC3)no1	inconclusive: 23.8 µM [inhibitor, partial curve, poor fit]	
Cc1cc(C(=O)NOCCO)c(Nc2ccc(I)cc2F)n(C)c1=O	inactive	
CCOc1ccccc1C(=O)Oc1c(S(=O)(=O)c2ccc(C)cc2)c(C)nn1-c1ccccc1	inconclusive: 22.4 µM [inhibitor, single point]	
CNC(=S)N1N=C(c2ccc(OC)cc2)CC1c1ccccc1Cl (centres undefined)	inactive	
Cc1c(CCOC(=O)c2ccc(N3CCOCC3)c([N+](=O)[O-])c2)sc[n+]1CC#N	inconclusive: 25.1 µM [inhibitor, single point]	
Cc1cc(NC(=O)c2c(Cl)cccc2Cl)no1	inactive	
CCc1nnc(NC(=O)c2ccc(S(=O)(=O)N3CCCc4ccccc43)cc2)o1	inconclusive: 35.5 µM [inhibitor, single point]	

Structure (SMILES)	Potency	activity change, negative = inhibition
CCOC(=O)N1CCN(CC(=O)Nc2sccc2C#N)CC1	inconclusive: 0.752 µM [inhibitor, full curve]	
CC(=O)c1ccc(N2CCc3ccccc3C2)c([N+](=O)[O-])c1	inconclusive: 18.9 µM [inhibitor, partial curve]	
NC(=Nc1nc(-c2ccccn2)cc2ccccc12)c1ccccn1	active: 0.316 µM	
CC1(C(=O)NCc2cccc(C(F)(F)F)c2)CCN1Cc1ccc(-c2ccccc2)o1 (centres undefined)	inconclusive: 39.8 µM [inhibitor, single point]	
CCOc1ccc2[nH]cc(C(=O)NCCc3ccccc3)c(=O)c2c1		inconclusive: -54.6% [inhibitor]
COCCn1nnnc1C(C(C)C)N(Cc1ccccc1)Cc1cc2cc(OC)ccc2[nH]c1=O (centres undefined)	inconclusive: 25.1 µM [inhibitor, partial curve, poor fit]	
CCOC(=O)N/N=C\c1cccc(OC)c1OC/C=C/c1ccccc1	inactive	
Cc1ccc(-n2nc(C(=O)N3CCN(c4ccc(F)cc4)CC3)c(=O)n(C)c2=O)cc1	inactive	
Cc1ccsc1/C=N/NC(=O)c1ccncc1	inconclusive: 8.44 µM [inhibitor, single point]	
CCOCCc1nnc(NC(=O)C(=O)c2cc(C)n(-c3cccc(C)c3)c2C)s1	inactive	
O=C(C1CCN(S(=O)(=O)c2cc(Cl)ccc2Cl)CC1)N1CCCC1	inactive	
O=C(NCc1ccccc1)C(=O)Nc1cccc(C(=O)O)c1	inconclusive: 14.1 µM [inhibitor, single point]	
Cc1cc(OCCOCCNC(C)C)cc(C)c1Cl	inconclusive: 12.6 µM [inhibitor, partial curve, poor fit]	
O=C(c1cnn2c1NC(c1ccco1)CC2C(F)(F)F)N1CCN(c2cccc(Cl)c2)CC1 (centres undefined)	inconclusive: 20 µM [inhibitor, single point]	
COc1cccc2c1C(=O)c1c(O)c3c(c(O)c1C2=O)C[C@@](O)(C(=O)CO)C[C@@H]3O[C@H]1C[C@H](N)[C@H](O)[C@H](C)O1	active: 100 µM and active: 316 nM	
Cn1cc(C(=O)N/N=C/C2=C(N3CCOCC3)C(=C\c3ccccc3)/CC2)ccc1=O	inconclusive: 28.2 µM [inhibitor, partial curve, poor fit]	
CC(=O)Nc1cccc(-c2ccnc3c2CC(C)(C(=O)Nc2cccc(OC(F)(F)F)c2)O3)c1 (centres undefined)	inconclusive: 22.4 µM [inhibitor, single point]	
COc1ccc(OC)c(/C=C/C(=O)N2C(=O)c3cccc(N)c3C2=O)c1	inconclusive: 31.6 µM [inhibitor, single point]	
COC(=O)N/N=C/c1c(C)c(C(=O)c2ccc(F)cc2)n2ccccc12	inconclusive: 39.8 µM [inhibitor, single point]	
CCCCCCn1c2c(c(=N)c3c1CCC3)CCC2	active: 8.91 µM	
O=C(COc1ccc(F)cc1)Nc1nnc(S(=O)(=O)N2CCc3ccccc32)s1	inactive	
Oc1ccc(C[C@H]2CNC(=S)N2CC2CCCN2C[C@H](Cc2ccc(O)cc2)N2C[C@H](Cc3ccc(O)cc3)N(CC3CCCCCC3)C2=S)cc1 (some centres undefined)	active: 20 µM	
